Consider 84 variants from the RNAGym collection of RNA variant scans (doi:10.1073/pnas.2313332121).

B1: TPR 5TU (parent)
chain: GGAUCUUCUCGAUCUAACAAAAAAGACAAAUCUGCCACAAAGCUUGAGAGCAUCUUCGGAUGCAGAGGCGGCAGCCUUCGGUGGCGCGAUAGCGCCAACGUUCUCAACUAUGACACGCAAAACGCGUGCUCCGUUGAAUGGAGUUUAUCAUG

Variants at the background level are over-represented here.

The data set covers variants of B1. The data set is described as follows: polymerase ribozyme fitness, log enrichment relative to wild type (log ratio); higher = more active; in vitro selection for triplet polymerase activity. In a few lines: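 In triplicate, a single round of in vitro selection was run on each mutant library, PCR-built and transcribed, covering one subunit of a heterodimeric triplet polymerase ribozyme. Frozen incubation at −7 °C followed annealing with a biotinylated primer, partner subunit and triplets, and extended constructs were then gel-excised, streptavidin-captured and taken through RT-PCR. Fitness is the logarithm of genotype enrichment over wild-type enrichment, from inverse-variance-weighted replicate averages of Illumina-sequenced inputs and outputs. […] only genotypes with ≥10 input reads and ≥1 read per output were kept.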
C76A C85A: the “polymerase ribozyme fitness (log ratio)” value was -1.96. Regarding C76A C103A, the “polymerase ribozyme fitness (log ratio)” value was no more than -4.2. For U78A the value was -3.62; for U78C, -0.318; for U78G, no more than -4.2. In the case of C75G A107C C108A, the “polymerase ribozyme fitness (log ratio)” value is no more than -4.2. With A73C C85G, the “polymerase ribozyme fitness (log ratio)” value was no more than -4.2.

On to G81A C87U A91U G112U G143A, for which the “polymerase ribozyme fitness (log ratio)” value was no more than -4.2. Regarding C76A A110G, the “polymerase ribozyme fitness (log ratio)” value is no more than -4.2. On to C79A A98U C118A C125U A137U, for which the “polymerase ribozyme fitness (log ratio)” value is no more than -4.2.

C75G G83C A89G C118U G141U: the “polymerase ribozyme fitness (log ratio)” value was no more than -4.2. For C75A G92C C96G A147U the value was no more than -4.2; for U77A G94U U151G, no more than -4.2. Take C75G U82A A91U A113U: the “polymerase ribozyme fitness (log ratio)” value was no more than -4.2. In the case of G74A A106G A122U it was no more than -4.2. In the case of G80C G84C G133A G141C it was no more than -4.2.

In the case of C76A U77G C79U A91U C132U G140A, the “polymerase ribozyme fitness (log ratio)” value was no more than -4.2. In the case of C79U G88C, the “polymerase ribozyme fitness (log ratio)” value is no more than -4.2. Consider C79U G88A, for which the “polymerase ribozyme fitness (log ratio)” value was no more than -4.2.

Regarding U77A G92A C105U A106C A121G, the “polymerase ribozyme fitness (log ratio)” value is no more than -4.2. In the case of G80U G84U G94A G117A U134A it was no more than -4.2; in that of C76G C85A A147U, no more than -4.2; in that of C76A C85A A89C A91G G140U U146C, no more than -4.2. Consider C79G U82C G126A A150G, for which the “polymerase ribozyme fitness (log ratio)” value was no more than -4.2. In the case of C79U G92A U146G U151A it was no more than -4.2; in that of C79A C103G C131A, no more than -4.2. With C79A U134C, the “polymerase ribozyme fitness (log ratio)” value is no more than -4.2. For C75A C93A the value was no more than -4.2; for C75G C85U C129A, no more than -4.2; for A73U C99A C103G C114U C123G, no more than -4.2.

As to U77C U90A A119G A137G, the “polymerase ribozyme fitness (log ratio)” value was no more than -4.2.

With C76A C131G U139A A150G, the “polymerase ribozyme fitness (log ratio)” value was no more than -4.2. In the case of C75G G81A G92U C125G it was no more than -4.2. With C76A C79A C96U G141C, the “polymerase ribozyme fitness (log ratio)” value is no more than -4.2.

On to G81A U90C A150G, for which the “polymerase ribozyme fitness (log ratio)” value was no more than -4.2. For C79G C93U the value was no more than -4.2; for A73G U148C A150G, no more than -4.2; for C79A U145C, no more than -4.2. For G81U C96U the value was -1.85; for C72U C96G U127C C131U G140U U151A, no more than -4.2. With C79A G80C U109C, the “polymerase ribozyme fitness (log ratio)” value was no more than -4.2. For U78G G80A G83C C87A C95A U101G U104C U144C, the “polymerase ribozyme fitness (log ratio)” value was no more than -4.2. In the case of A73U C93A it was -3.39; in that of A73U C93U, -1.62; in that of C72U C93U, -0.741. With G74A C75G G83U A97G, the “polymerase ribozyme fitness (log ratio)” value was no more than -4.2. In the case of C79A U82C G84U A119U it was no more than -4.2; in that of G74A A110C, no more than -4.2. Turning to A73G G94C U139C, the “polymerase ribozyme fitness (log ratio)” value was no more than -4.2. For C76G A107C G143U the value was no more than -4.2; for G81C C96A U101G U104G C114U A137U, no more than -4.2. Take C76G A91C C123U: the “polymerase ribozyme fitness (log ratio)” value is no more than -4.2. As for G81C C103U U134G, the “polymerase ribozyme fitness (log ratio)” value is -2.49. In the case of C76U C87A it was -3.85; in that of C75G C108A A120U G133U, no more than -4.2.

Take C79A A98G A137U: the “polymerase ribozyme fitness (log ratio)” value was no more than -4.2. On to A73G U134G, for which the “polymerase ribozyme fitness (log ratio)” value is -2.2. With C79A G80A G81A G88U, the “polymerase ribozyme fitness (log ratio)” value was no more than -4.2.

Consider A73G U144C A150C, for which the “polymerase ribozyme fitness (log ratio)” value was no more than -4.2. Turning to C76G G100U A107G, the “polymerase ribozyme fitness (log ratio)” value is no more than -4.2.

For the variant C75U U144C, the “polymerase ribozyme fitness (log ratio)” value is -0.607. In the case of U77A G128A U134A A142U it was no more than -4.2. For G74U C105G G133C, the “polymerase ribozyme fitness (log ratio)” value was no more than -4.2. Regarding U77G A91G G152A, the “polymerase ribozyme fitness (log ratio)” value was no more than -4.2.

Regarding G74C U82C, the “polymerase ribozyme fitness (log ratio)” value is -4.05. In the case of C72U C76G G81A C87G it was no more than -4.2. For C79U G140C the value was -4.1; for A73G A110G G143A, no more than -4.2; for C76A U145C, -0.484. C75U G88C C116A A150C: the “polymerase ribozyme fitness (log ratio)” value is no more than -4.2. With U77G A89G C95G C105G C108G, the “polymerase ribozyme fitness (log ratio)” value was no more than -4.2.

Take U82C A89U C96G G100A A106U: the “polymerase ribozyme fitness (log ratio)” value was no more than -4.2.

For the variant U77A G92A C118A G136U, the “polymerase ribozyme fitness (log ratio)” value was no more than -4.2. For C76G G84A C118A G141C the value was no more than -4.2; for U77G C85A U148A, no more than -4.2. For G81C A98U A107G the value was no more than -4.2. Take G81C C93U U130G C131U A150U: the “polymerase ribozyme fitness (log ratio)” value is no more than -4.2.

As for C75G U104A G143C, the “polymerase ribozyme fitness (log ratio)” value was no more than -4.2. In the case of C75U C87U U90G A97G G143U U148C it was no more than -4.2; in that of G80U C125A, -1.04; in that of U82C U135C U146C, -2.14. As for C76U A150C, the “polymerase ribozyme fitness (log ratio)” value was -3.79. Regarding C75U G88A A119U, the “polymerase ribozyme fitness (log ratio)” value is no more than -4.2. In the case of G74C U90C A91C U104G U130A it was no more than -4.2.
